The values that follow come from ChEMBL document CHEMBL1201862, “PubChem BioAssay data set” (2004).

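Test compounds were applied to cells in 96-well plates for 48 hours at 5 doses. GI50 = concentration required for 50% inhibition of growth.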 The source made the active and inactive calls. Cut-off read from the data, not from the text of the source: active = GI50 up to about 1.1 µM and inactive = higher.

For this experiment, the system named is NCI-H322M. As to the kind of experiment: inhibition of tumour cell growth, NCI panel, 48 h.
Regarding `O=C(Oc1ccccc1)c1cc2cc(CCl)ccc2oc1=O`, the GI50 is inactive: 54.5 µM.

Turning to `O=C(/C=C/c1ccccc1O)c1ccccc1O`, the GI50 is inactive: > 100 µM.

`CCSC1=C(C#N)C2(CCCCC2)C2=C(O)CC(C)(C)CC2=N1`: the GI50 is inactive: 23.2 µM.

Take `C=CC(=O)N1C/C(=C\c2ccc(Cl)cc2)C(=O)/C(=C/c2ccc(Cl)cc2)C1`: the GI50 was active: 0.94 µM.

Regarding `CCC(=O)OC1CCn2c1nc1c2C(=O)C(C)=C(N2CC2)C1=O` (stereo not drawn), the GI50 is active: 0.27 µM.

Turning to `Cc1ccc2c(c1)S(=O)(=O)c1ccc3ccccc3c1N2`, the GI50 is inactive: > 100 µM.

On to `COC(=O)/C=C(\S/C(=N\n1cc(C(=O)OC)c(C(=O)OC)c1-c1ccc(C)cc1)c1ccc(C)cc1)C(=O)OC`, for which the GI50 is inactive: 31.6 µM.

As for `CCOC(=O)C1=C(C#N)S(=O)(=O)c2c(oc(C)c2C)N1`, the GI50 is inactive: > 100 µM.

Take `O=C(CSCC(=O)N/N=C/c1cccs1)N/N=C/c1cccs1`: the GI50 was inactive: > 100 µM.

On to `O=C(C(=C(I)I)c1ccccc1)c1ccccc1`, for which the GI50 was inactive: 23.6 µM.

In the case of `CC(=O)N(C)c1cc(NCc2ccccc2)ccc1OCc1ccccc1`, the GI50 was inactive: 20.7 µM.

With `CC(=O)OC[C@H]1CN(OC(C)=O)C[C@@H](n2cc(C)c(=O)[nH]c2=O)O1`, the GI50 is inactive: > 100 µM.

`NC(=O)C1=NNc2ccccc2C(=O)N1c1ccccc1`: the GI50 is inactive: > 100 µM.

With `CCCCCCCCCCCCC/C=C1\C[C@H](O)COC1=O`, the GI50 is inactive: 16.5 µM.

Consider `CC(C)C(Sc1nc(-c2ccccc2)c(-c2ccccc2)[nH]1)C(=O)N/N=C/c1ccc([N+](=O)[O-])cc1` (stereo not drawn), for which the GI50 is inactive: 22.9 µM.

As for `COc1cc2c(cc1OC)C1C=NC(C2)c2cc(OC)c(OC)cc21` (stereo not drawn), the GI50 is inactive: > 100 µM.

For `Cc1c(C)c(S(=O)(=O)N(CCCCCON)OCCCN)c(C)c2c1OC(C)(C)CC2`, the GI50 is inactive: 13.5 µM.

On to `Cc1ccc(C2=CC(=O)/C(=C\C(=O)c3ccc(Cl)cc3)O2)cc1`, for which the GI50 is inactive: 50.7 µM.

As to `CC(C)Cc1ccc(C(C)/C=C2\CCC(CN3CCCCC3)C2=O)cc1` (stereo not drawn), the GI50 is inactive: 14.5 µM.

For the compound `CC(=O)OCC1OC(n2cccnc2=O)C(OC(C)=O)C1OC(C)=O` (stereo not drawn), the GI50 is inactive: > 100 µM.

Turning to `Nc1ncc(N)c(NCC2(CO)CC(CCc3ccccc3)C2)n1` (stereo not drawn), the GI50 is inactive: 14.6 µM.

In the case of `C=C(C)[C@H]1C[C@@H]2O[C@@](O)(/C(C)=C\C(=O)/C=C(/C)C[C@H]3OC(=O)[C@@]24O[C@H]34)[C@@H]1O`, the GI50 is inactive: > 100 µM.

`COC/C=C\[C@]1(O)CCCC[C@@H]1CC(OC)OC`: the GI50 was inactive: > 100 µM.

With `COc1ccc(/C=N/N=C(\N)NO)c(Cl)c1O`, the GI50 is inactive: 10.4 µM.

`COc1ccc(C2S/C(=C\c3ccccc3)C(=O)N2NC(=O)Cc2ccccc2)cc1` (stereo not drawn): the GI50 is inactive: > 100 µM.

As to `COc1ccc(/C=C/C(=O)Oc2ccccc2OC)cc1`, the GI50 was inactive: > 63.2 µM.

As to `COc1cc(COC(=O)N(CC(=O)O)c2ccccc2)c([N+](=O)[O-])cc1OC`, the GI50 is inactive: > 100 µM.

Consider `Cc1cccc(NC(=S)Nc2ccc([N+](=O)[O-])cc2)n1`, for which the GI50 was inactive: > 100 µM.

Regarding `COc1cccc2c(=O)oc(-c3ccc(C(C)(C)C)cc3)nc12`, the GI50 is inactive: > 100 µM.

On to `CCOC(=O)C(Cc1ccc(OC(=O)c2ccc(OC)cc2)cc1)NC(=O)C(F)(F)F` (stereo not drawn), for which the GI50 is inactive: > 100 µM.

For the compound `CSc1ncc2c(n1)-c1ccccc1OC2N1CCCCC1` (stereo not drawn), the GI50 was inactive: 46.2 µM.

For the compound `Cc1ccc(NC(=S)NNC(=O)c2cc(-c3ccccc3)nc3ccccc23)cc1`, the GI50 was inactive: 14 µM.

With `C=CCc1ccccc1CC1(OCC)OC(=O)c2ccccc21` (stereo not drawn), the GI50 is inactive: > 100 µM.

For `COc1c(OC2OC(CO)C(O)C(O)C2O)cc2c(c1OC)-c1ccc(OC)c(=O)cc1C(NC(C)=O)CC2` (stereo not drawn), the GI50 was inactive: > 99.8 µM.

`C[C@@H]1C[C@](O)([C@@H](C)Cl)C(=O)O[C@@H]2CCN3CC=C(COC(=O)[C@]1(C)O)[C@H]23`: the GI50 is inactive: > 100 µM.

For `COc1ccc(/C=N/N=C(\N)NO)cc1F`, the GI50 was inactive: 11.1 µM.

Regarding `CC(=O)N1C(c2[nH]c3ccccc3c2-c2ccccc2)CCN1c1ccccc1` (stereo not drawn), the GI50 was inactive: > 10 µM.

As for `COC(=O)c1ccc(C)cc1CC1Cc2cc(C)ccc2C1=O` (stereo not drawn), the GI50 is inactive: > 100 µM.

In the case of `C=C(C)[C@@H]1CCC2=C[C@H](OC2=O)[C@@]2(C)C[C@@H]2C2=CC(C)=C(O2)[C@H]1O`, the GI50 was inactive: > 75 µM.

With `COc1cc2c(cc1OC)C(Cc1ccc(Oc3cc(CC4c5cc(OC)c(OC)cc5CCN4C)ccc3O)cc1)N(C)CC2` (stereo not drawn), the GI50 was inactive: > 100 µM.

Regarding `Cc1c(/C=C2\CC/C(=C\c3[nH]c(C(=O)OC(C)(C)C)c(C)c3C)C2=O)[nH]c(C(=O)OC(C)(C)C)c1C`, the GI50 was inactive: > 100 µM.

On to `CN(C)c1cc2ccccc2oc1=O`, for which the GI50 was inactive: > 100 µM.

For the compound `O=C(c1ccc(Cl)cc1)N(C(=S)OC12CC3CC(CC(C3)C1)C2)c1ccccc1`, the GI50 is inactive: 43.1 µM.

With `N#Cc1nc(C2CCC2)oc1N`, the GI50 was inactive: > 100 µM.

Consider `Cc1cc(Br)cc(C)c1NC(=O)C(=O)C(C(=O)c1ccc(Cl)c(Cl)c1)C1OC(=O)c2ccccc21` (stereo not drawn), for which the GI50 was inactive: > 100 µM.

With `CC(CO)C1=CC(C#CCOCc2ccccc2)N(C(=O)Oc2ccccc2)c2ccccc21` (stereo not drawn), the GI50 was inactive: 39.9 µM.

As to `N#CCc1ccc(C(C#N)/C(CCCC(=O)Nc2cccc([N+](=O)[O-])c2)=N/NC(N)=S)cc1` (stereo not drawn), the GI50 is inactive: > 100 µM.

Consider `CCCCC1CCCCCCc2[nH]c(/C=C3\N=C(c4ccc[nH]4)C=C3OC)cc21` (stereo not drawn), for which the GI50 was active: 0.0361 µM.

In the case of `Cc1ccccc1C(O)(c1nccn1C)c1nccn1C`, the GI50 is inactive: > 100 µM.

`CC1SCc2nc3ccccc3n21` (stereo not drawn): the GI50 is inactive: > 100 µM.

Turning to `[N-]=[N+]=NC(c1cn(C2CC(O)C(CO)O2)c(=O)[nH]c1=O)C(Cl)I` (stereo not drawn), the GI50 is inactive: > 100 µM.

Turning to `COC(=O)[C@H](Cc1ccccc1)NC(=O)N(CCN(CCC#N)C(=O)N[C@H](C(=O)OC)C(C)C)c1ccccc1`, the GI50 is inactive: > 100 µM.

Take `CC(CCOc1ccc2ccc(=O)oc2c1)C1=CC(=O)C(C)(C)O1` (stereo not drawn): the GI50 was inactive: 2.86 µM.

For the compound `CC(=O)OCC1OC(N2C(S)=C(C#N)C(c3ccco3)C(C(C)=O)=C2c2ccccc2)C(OC(C)=O)C(OC(C)=O)C1OC(C)=O` (stereo not drawn), the GI50 is inactive: 72.1 µM.

As for `COc1cc(/C=C2\N=C(c3ccccc3)N(c3ccc(C(=O)c4ccccc4)cc3N3C(=O)/C(=C/c4ccc(O)c(OC)c4)N=C3c3ccccc3)C2=O)ccc1O`, the GI50 is inactive: 20.3 µM.

Take `CC(C)NC(NC(C)C)=C(S(=O)(=O)C(F)(F)C(F)(F)C(F)(F)C(F)(F)F)S(=O)(=O)C(F)(F)C(F)(F)C(F)(F)C(F)(F)F`: the GI50 is inactive: > 100 µM.

With `O=C1NC(Nc2ccccc2)=N/C1=C\c1c(Cl)cccc1Cl`, the GI50 was inactive: 24.5 µM.

In the case of `CN(C)CCOc1ccc(I)cc1Cc1ccccc1`, the GI50 is inactive: 13.9 µM.

Consider `C=CCCCC1CCCNC1=O` (stereo not drawn), for which the GI50 is inactive: > 100 µM.

For `N#CCCc1nc2ccc(Br)cc2c(=O)n1CCO`, the GI50 is inactive: > 100 µM.

For the compound `CCOC(=O)C1=C(C)N(NC(=O)Nc2ccccc2)C2(N)N(NC(=O)Nc3ccccc3)C(C)=C(C(=O)OCC)C12C(=O)OCC` (stereo not drawn), the GI50 was inactive: 63.8 µM.

Take `CN1CCN(c2ccc3[nH]c(-c4ccc5[nH]c(-c6ccc(N(C)CCCl)cc6)nc5c4)nc3c2)CC1`: the GI50 is active: 0.231 µM.

Take `C#CCSC(C=C=C)P(=O)(OC(C)C)OC(C)C` (stereo not drawn): the GI50 was inactive: > 100 µM.

Regarding `O=C1c2c(ccc3c2CCCC3)CC1Cc1ccc2c(c1)CCCC2` (stereo not drawn), the GI50 is inactive: > 100 µM.

Turning to `Cc1c2cccc-2c2cc(O)c3ccccc3c2n1-c1ccc(N(C)C)cc1`, the GI50 is inactive: 10.8 µM.

With `Fc1ccc(-c2sc(-c3cccs3)cc2Cc2cccs2)cc1`, the GI50 was inactive: > 100 µM.

For `O=C1c2c(c3c4ccccc4n4c3c3c2c2ccccc2n3C/C=C\C4)C(=O)N1Cc1ccccc1`, the GI50 is inactive: > 100 µM.

On to `CC(=O)OC1C(O)C(C)OC(OC(=O)C2CCC3C(C2)OC2(CC(OC(=O)/C=C/c4ccccc4)C(C)CO2)C32CO2)C1OC1OC(C)C(O)C(O)C1O` (stereo not drawn), for which the GI50 was active: 0.044 µM.

As for `COc1c(-c2nc3ccc(N4CCN(C)CC4)cc3[nH]2)cc(OC)c2[nH]c(CO)nc12`, the GI50 is inactive: 95.5 µM.

In the case of `CCc1cccc(C(C)C)c1NC(=O)C(=O)C1C(=O)Nc2ccccc2[S+]1[O-]` (stereo not drawn), the GI50 was inactive: > 100 µM.

Consider `Nc1nc2c(ncn2CCCC(c2ccccc2)P(=O)(O)O)c(=O)[nH]1` (stereo not drawn), for which the GI50 is inactive: > 100 µM.

Regarding `O.O=C([O-])c1ccccc1Nc1ccccc1C(=O)[O-].[Zn+2]`, the GI50 was inactive: 20.9 µM.

For the compound `COC(C)(C)[C@H](O)C(O)CC(C)[C@@H]1CCC23CC12CCC1[C@@]2(C)CCC(OC(C)=O)C(C)(C)C2CC(OC2OC(COC(C)=O)C(O)C(O)C2O)[C@]13C` (stereo partly drawn), the GI50 was inactive: 1.61 µM.

With `C/C=C/C=C\C1OC(O)([C@H](CC)C(=O)NC/C=C/C=C(\C)[C@H](OC)C(C)C2OC(\C=C/C=C/C=C(\C)C(=O)c3c(O)ccn(C)c3=O)[C@H](O)[C@@H]2O)C(O)C(O)C1(C)C` (stereo partly drawn), the GI50 was inactive: > 100 µM.

On to `COC(=O)CCC(C)C1CCC2C3C(C[C@H](OC(C)=O)[C@]12C)[C@@]1(C)CCC2(C[C@H]1C[C@H]3OC(C)=O)OOC1(CC[C@]3(C)C4C[C@H](OC(C)=O)[C@]5(C)C(C(C)CCC(=O)OC)CCC5C4[C@H](OC(C)=O)C[C@@H]3C1)OO2` (stereo partly drawn), for which the GI50 was inactive: > 100 µM.

`C=CCSSCC=C`: the GI50 was inactive: > 100 µM.

Take `Clc1ccc(-c2nnc(-c3nsc4ccccc34)o2)cc1`: the GI50 was inactive: 44.4 µM.

Consider `COC1=CC(=O)c2c(CCNC(=O)OCc3ccccc3)n[nH]c2C1=O`, for which the GI50 was inactive: 19.7 µM.
